These results are taken from ChEMBL document CHEMBL1157539, “Thousands of chemical starting points for antimalarial lead identification” (Nature, 2010).

The full ranking holds about 13,000 compounds; the median of “IFI” is about 4, and the highest 2% start at about 17. This is one part of the list.

A short description of this test: GSK_TCMDC: Inhibition Frequency Index (IFI). The number of non-kinase HTS assays where a compound showed > 50 % inhibition, expressed as a percentage of the number of such assays in which the compound was tested (-0 is zero). It counts as functional.
The compound `Cc1cccc2nc(-c3cccc(-c4ccc(NC(=O)c5cccc(C(N)=O)c5)cc4)c3)[nH]c12` registered an IFI of 3.81%.
The figure for `O=S(=O)(Nc1cccc(CCN2CCCCC2CCN2CCCC2)c1)c1ccc2ccccc2c1` (stereo unspecified) is 13.1%; for `CCOC(=O)c1nc(-c2ccccc2)[nH]c1-n1nc(C)cc1C` it is 0%; for `Cc1cc2nc(-c3ccc(C(=O)NCc4ccc(Cl)c(Cl)c4)cc3)[nH]c2cc1C` it is -0%.
The figure for `COc1c(C2CCN(CCCCNC(=O)c3ccc(-c4ccc(Cl)cc4)cn3)CC2)ccc2c1CCCC2` is 10.6%; for `Cc1cc(NC(=O)Nc2ccc(N(C)C)cc2)c2cc(Cl)ccc2n1` it is 4.44%.
Turning to `CC(C)CNCc1ccc(-c2cccc(CN(C(=O)NCCc3ccccc3)C3CCN(Cc4ccccc4)CC3)c2)cc1`, the IFI turned out to be 7.19%.
The result for `COC(=O)c1cccc(CNCc2ccc(-c3ccc(-c4nc5cccc(C)c5[nH]4)cc3)cc2)c1` reads 5.88%; that for `CCCc1cc(=O)[nH]c(-n2nc(C)cc2NC(=O)c2cc3ccccc3o2)n1`, 11.5%; that for `CN(C)c1ccc(C=Cc2nc(=O)c3ccccc3o2)cc1`, 5.15%.
As to `CCN(CC)Cc1cc(NC(=O)c2ccccc2O)ccc1Oc1ccc(Cl)cc1`, the IFI came out at 5.52%.
The figure for `N#Cc1ccccc1C1CCN(C2CCC(Nc3cc(-c4cccnc4)ccn3)CC2)CC1` (stereo unspecified) is -0%; for `CCCCNc1c(CC)c(C)c(C#N)c2nc3ccccc3n12` it is 2.26%; for `CS(=O)(=O)CCNCc1ccc(-c2ccc3c(Nc4ccc(Oc5ccccn5)cc4)ccnc3c2)o1` it is 3.7%.
The figure for `Cc1[nH]cnc1-c1cccc(NC(=O)c2cc3ccccc3s2)c1` is 3.51%.
The figure for `Oc1ccc(CCNCc2ccc(OCc3ccccc3)c(OCc3ccccc3)c2)cc1` is 5.41%; for `Nc1nc(N)c2c(n1)CCc1cc(Br)ccc1-2` it is 2.9%; for `CCCCCCNC(=O)C1Cc2c([nH]c3ccc(Br)cc23)C2(CCN(Cc3ccccc3)CC2)N1` (stereo unspecified) it is 8.45%.
Consider `CC[C@H](C)CNC(=O)c1cncc(-c2cccc(CN3CCC(N4CCCC4)CC3)c2)c1`, for which the IFI is 1.64%.
`CC(C)(C)c1ccc(-c2nc3c(ccc4nc(N)nc(N)c43)[nH]2)cc1`: the IFI was 14.2%.
With `O=C(Nc1ccc(N2CCN(Cc3ccccc3Cl)CC2)cc1)c1ccc([N+](=O)[O-])o1`, the IFI worked out at 16%.
Compound `CCCCCCn1c2c(c(=N)c3c1CCC3)CCC2` registered an IFI of 3.57%.
The result for `CCOC(=O)NCCSC(C)(C)[C@H](NC(=O)[C@H](Cc1cc2ccccc2s1)[C@H](CC)N(O)C=O)C(=O)Nc1nccs1` reads 2.88%; that for `Cc1cccc2nc(-c3ccc(-c4ccc(CN5CCN(C6CCN(C)CC6)CC5)cc4)cc3)[nH]c12`, 7.14%.
The figure for `CCCCN(C(=O)c1ccccc1Cl)c1nnc(-c2ccccc2C)s1` is 4.92%; for `CCc1cccc(C)c1-n1nc(-c2cc(C(C)(C)C)oc2C)cc1N` it is 7.02%.
The figure for `CC(CCc1ccccc1)NCC(O)c1ccc2c3c(cccc13)S(=O)(=O)N2C` (stereo unspecified) is 3.52%; for `Oc1c(CNC2CCCCC2)cc(Cl)c2ccccc12` it is 8.53%.
Consider `N#Cc1ccccc1C(=O)N(Cc1cncn1Cc1cccc(F)c1)CC1CC1`, for which the IFI was -0%.
`CC(C)N1CCN(c2ccc(OCCCCN3CCN(c4cccc(Cl)c4Cl)CC3)c(C(F)(F)F)c2)CC1` yielded an IFI of 14.6%.
The figure for `CCNc1cc(C(=O)N[C@@H](Cc2ccccc2)[C@H](O)CNCCc2cccc3ccccc23)cc(N2CCCC2=O)c1` is 6.34%; for `O=C(/C=C/c1ccc(Cl)c(Cl)c1)NCCCCCN1CCCC(CNC(=O)c2sc3ccccc3c2Cl)C1` (stereo unspecified) it is 6.11%; for `COc1ccc(NC(=O)[C@H](Cc2ccccc2)Nc2cc(C)nc(NCCc3cccnc3)n2)cc1` it is 2.38%.
In turn, `COc1ccc(C2C(C(=O)Nc3cc(C)ccc3OC)c3ccccc3C(=O)N2C)cc1` (stereo unspecified) displayed an IFI of 1.37%.
`O=C(/C=C/c1ccc(Cl)c(Cl)c1)NCCCCCN1CCCN(C(=O)Nc2cccc(C(F)(F)F)c2)CC1` had an IFI of 8.61%.
The figure for `CCCCCOc1ccc(C=NNc2nc(O)cc(-c3ccccc3)n2)cc1` is 0%; for `O=C(Nc1cccc(-c2cccc(-c3nc4cc(C(F)(F)F)ccc4[nH]3)c2)c1)Nc1ccc(F)c(F)c1F` it is 9.71%.
In turn, `O=C(NCC1CC1)C1Cc2c([nH]c3ccc(Br)cc23)C2(CCN(CCc3ccccc3)CC2)N1` (stereo unspecified) registered an IFI of 5.59%.
The compound `CS(=O)(=O)NCCCNCc1ccc(-c2ccc(-c3nc4cc(F)ccc4[nH]3)s2)cc1` displayed an IFI of 1%.
For `Cc1cccc2nc(-c3ccc(-c4ccc(NC(=O)NC5CC5c5ccccc5)cc4)cc3)[nH]c12` (stereo unspecified), the IFI was 6%.
In turn, `O=C(O)C1CC(=O)N(c2ccc(Cl)cc2)C1` (stereo unspecified) gave an IFI of 0.72%.
For `O=C(CCc1c[nH]cn1)Nc1cccc(-c2ccc(-c3nc4ccccc4[nH]3)cc2)c1`, the IFI was 5.26%.
The compound `CN(CCS(C)(=O)=O)Cc1ccc(-c2ccc3ncnc(Nc4ccc(OCc5cccc(F)c5)c(Cl)c4)c3c2)o1` returned an IFI of 5.19%.
`COc1cc2nc(N(C)Cc3cc4c(Cl)cccc4s3)nc(N)c2cc1OC` gave an IFI of 2.44%.
As to `COc1ccccc1CCNc1nc(C)cc(N[C@@H](CC(C)C)C(=O)NCc2cccc(F)c2)n1`, the IFI was 4.88%.
The result for `CNC(=O)c1cnc(Nc2ccc(OCC(O)CN(C)C)cc2)nc1Nc1cccc(OC)c1` (stereo unspecified) reads 2.22%; that for `O=C(NCCNc1ccnc(Nc2ccc(F)cc2)n1)Nc1ccc2c(c1)OCO2`, 1.54%; that for `CSc1nnc2n(Cc3ccccc3)c(=O)c3c(n12)-c1ccccc1CC31CCCCC1`, 3.28%.
`Nc1nccc2ccc(-c3ccc(OCc4ccccc4)cc3)cc12`: the IFI was 19.1%.
Consider `CC(C)CCNCc1ccc(OCc2cccc(C(=O)Nc3ccccc3)c2)c(I)c1`, for which the IFI amounted to 10.9%.
Turning to `O=C(CN1CCC2(CCC1=O)CC(=O)c1ccccc1O2)NCCN1CCOCC1` (stereo unspecified), the IFI was 0%.
The result for `O=C(Nc1cccc(-c2csc(-c3nc4ccccc4[nH]3)c2)c1)c1ccoc1` reads 2.75%; that for `Nc1ncnc2cc(-c3cccc(S(N)(=O)=O)c3)sc12`, 2.11%; that for `Cc1cccc(Cl)c1S(=O)(=O)N1CCCCC(c2ccc(C(F)(F)F)cc2)=N1`, 2.92%.
The figure for `Fc1ccc2[nH]c(-c3ccccc3)nc2c1CN1CCC(N2CCCC2)CC1` is -0%; for `C[C@@H](N/C(=N\c1ccccc1Cl)Nc1ccc(C#N)cc1O)c1ccc(Br)cc1` it is 1.46%; for `Cc1ccc(/C=C/C(=O)N2CCC(CCN3CCC(c4c[nH]c5ccccc45)CC3)CC2)cc1C` it is 11%.
The figure for `Cc1cc(N2CCCC2)nc(Nc2ccc(NC(=O)c3ccccc3F)cc2)n1` is 8.11%; for `Cc1cccc2nc(-c3ccc(-c4ccc(CNCCNC(=O)c5ccnn5C)cc4)s3)[nH]c12` it is 8.91%; for `C(=N\Nc1nccc2sc(-c3cccnc3)cc12)/c1ccncc1` it is 6.98%.
For `CCCCN(CCCC)CCCCNc1c2ccccc2nc2ccccc12`, the IFI came to 2.21%.
For the compound `O=C(Cc1cccnc1)Nc1cccc(-c2cccc(-c3nc4cc(C(F)(F)F)ccc4[nH]3)c2)c1`, the IFI turned out to be 16.7%.
`O=C(Nc1ccc(C(=O)OCC2CCCN3CCCCC23)cc1)c1ccc(Cl)c(Cl)c1` (stereo unspecified): the IFI was determined as 1.52%.
`CN1CCC(NCc2cccc(-c3cccc(-c4nc5cc(C(F)(F)F)ccc5[nH]4)c3)c2)CC1`: the IFI amounted to 9.52%.
`Cc1ccc2c(c1)c(-c1ccccc1)c(-c1ccccc1)n2CC(O)CN1CCN(CC=Cc2ccccc2)CC1` (stereo unspecified) registered an IFI of 5.88%.
Regarding `O=C(/C=C/c1ccc(Cl)c(Cl)c1)NCCCCCN1CCC(NC(=O)c2ccc(F)cc2)CC1`, the IFI amounted to 6.35%.
As for `COc1ccccc1N1CCN(CCCCNC(=O)c2ccc(NC(=O)c3cc4ccccc4o3)cc2)CC1`, the IFI came out at 1.56%.
For the compound `Oc1cc2c(cc1CN1CCN(Cc3ccc(Cl)s3)CC1)CCC2`, the IFI was determined as 5%.
As to `O=C(NC1CCCCC1)N(Cc1cccc(-c2cccc(CNC3CCCC3)c2)c1)C1CCN(Cc2ccccc2)CC1`, the IFI worked out at 5.84%.
The compound `O=C(/C=C/c1ccc(-c2nc3cc(F)c(F)cc3[nH]2)cc1)NCc1ccc(Cl)c(Cl)c1` came in with an IFI of 1.49%.
The result for `Nc1c(-c2ccc(C(=O)NCCNCc3ccccc3)cc2)cnn1-c1ccc(C(F)(F)F)cc1` reads 11.3%; that for `CCOC(=O)N1CCN(CCCNc2c3ccccc3nc3ccccc23)CC1`, 0.76%.
As for `CCCC(C)NC[C@@H](O)[C@H](Cc1ccccc1)NC(=O)c1cc(NCC)cc(N2CCCCS2(=O)=O)c1` (stereo partly specified), the IFI is 2.9%.
Consider `CCCCCCCN1CC[C@@H](CCCc2ccnc3ccc(OC)cc23)[C@@H](CCN)C1`, for which the IFI came out at 6.52%.
`Cc1cc(C)c2c(c1)C(=NO)CCN2`: the IFI is 3.57%.
The figure for `Oc1ccc(CCNc2nc(NCc3ccccc3Oc3ccc(C(F)(F)F)cc3)nc(N3CCNCC3)n2)cc1` is 20%.
Compound `CN(Cc1ccccc1)C(=O)CCNS(=O)(=O)c1cc(Br)cnc1N` showed an IFI of -0%.
As for `CCc1ccccc1N1CCN(CCCCNC(=O)c2ccc(NC(=O)c3ccc(Cl)cc3)cc2)CC1`, the IFI was found to be 1.77%.
The figure for `O=C(NCCN1CCCC1)c1ccc(-c2cccc(-c3nc4cc(F)ccc4[nH]3)c2)cc1` is 2.7%; for `c1ccc(Oc2ccc(Nc3ccnc4ccc(-c5ccco5)cc34)cc2)cc1` it is 7.38%.
The compound `O=C(Nc1ccc(Br)cc1)N1CCC(n2c(-c3ccccc3)nc3cccnc32)CC1` came in with an IFI of 2.38%.
The figure for `NC(=O)c1cccc(CNC(=O)NC[C@H]2CN(Cc3ccc(Cl)c(Cl)c3)CCO2)c1` is 0.78%; for `COc1cc2c(cc1C(F)(F)F)N(C(=O)Nc1cc(-c3ccncc3)cc(-c3cccnc3)c1)CC2` it is 5.34%.
The figure for `Cc1[nH]c2cc(F)ccc2c(=O)c1Cc1ccc(Cl)cc1.Cc1[nH]c2cccc(F)c2c(=O)c1Cc1ccc(Cl)cc1` is 1.96%.
Consider `c1ccc(Oc2ccc(Nc3ccnc4cc(-c5ccc(CN6CCCCC6)o5)ccc34)cc2)nc1`, for which the IFI worked out at 7.86%.
In turn, `O=C(Nc1ccc(Cl)c(Cl)c1)Nc1ccc(F)c([N+](=O)[O-])c1` registered an IFI of 16.7%.
The figure for `O=C(NC1CC1)c1ccc(N2CCOc3ccc(Cl)cc32)s1` is 6.94%; for `CN1CCN(c2ccc(-c3cc(-c4cc(F)c(F)c(F)c4)cnc3N)cc2)CC1` it is 11.5%; for `CN1CCCN(Cc2ccc(-c3cccc(NC(=O)c4cccc(Cl)c4)c3)cc2)CC1` it is 3.85%.
The figure for `Cc1[nH]c(C)c(-c2ccc(-c3ccc(C#N)cc3)nc2)c(=O)c1Br` is 0.92%.
The compound `COc1cc(NC(=O)c2cc([N+](=O)[O-])ccc2NC(=O)CNC2CCCC(C)C2C)cc(OC)c1` (stereo unspecified) gave an IFI of 5.56%.
